Measured values from the BET-seq Pho4 binding data (Le et al. 2018).
This is one part of the list. Values were computed here from the reads of four pooled replicates and scatter widely.

Target: T1, Pho4 (S. cerevisiae) (UniProt P07270)
T1 sequence: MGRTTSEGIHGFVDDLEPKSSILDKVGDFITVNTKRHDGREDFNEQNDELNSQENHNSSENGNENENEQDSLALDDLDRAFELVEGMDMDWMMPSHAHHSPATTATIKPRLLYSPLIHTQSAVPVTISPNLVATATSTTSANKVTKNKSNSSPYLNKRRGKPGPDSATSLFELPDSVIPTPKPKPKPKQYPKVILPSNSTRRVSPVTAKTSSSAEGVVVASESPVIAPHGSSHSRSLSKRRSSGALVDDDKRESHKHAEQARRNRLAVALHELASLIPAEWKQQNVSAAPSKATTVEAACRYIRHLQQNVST
Experiment: relative binding free energy (BET-seq); higher = weaker binding
Details: reference: library average

Sequence	relative binding free energy [kcal/mol]
TGGAGCACGTGTCGTT	-0.12
ATAGTCACGTGTCTTG	-0.01
CGATTCACGTGTGTTT	0.31
CAGTCCACGTGGTTGG	-0.01
GGCTTCACGTGTGATT	0.37
GGGCCCACGTGTAGGT	0.06
TGAGACACGTGGATGG	0.03
TATTGCACGTGGGGAG	-0.05
GTTTTCACGTGATTTT	0.37
TGGTGCACGTGAGAAG	0.29
GTGTACACGTGATTGC	0.22
GTGGACACGTGAGCGG	0.3
TGGATCACGTGTTCTG	0.03
TGAGGCACGTGGCTGG	-0.13
TGAATCACGTGTTAGT	0.21
GCGTGCACGTGTATGA	0.01
GCGCGCACGTGGGAGG	-0.14
AGCGGCACGTGTACGG	-0.06
TTTTGCACGTGGTCAT	-0.04
AGGGGCACGTGATACT	0
TGTGTCACGTGACGGT	0.17
GGGATCACGTGCTCGT	0.22
CTCGACACGTGTGGGG	-0.04
TAATGCACGTGAGATG	0.09
AATGACACGTGGTTGA	0.04

Sequence	relative binding free energy [kcal/mol]
ACTGGCACGTGGATGA	0.08
AATGTCACGTGGGATA	-0.04
GGTAGCACGTGGCCGT	-0.3
GCGGTCACGTGGGGCA	-0.12
TTGCGCACGTGGGGGC	-0.29
ATGGGCACGTGTCGCT	-0.07
TTTAACACGTGGACAT	0.12
ACGTTCACGTGATGTT	0.3
ATGATCACGTGAGGGA	0.25
CTGTACACGTGAGGAG	0.29
AGGTCCACGTGTCGTT	0.14
TAGCGCACGTGGCGGG	-0.43
TTTTTCACGTGGCCGG	0.21
TTATTCACGTGCGGCA	0.26
ATGTTCACGTGTATTC	0.07
GTCTGCACGTGTATAG	-0.02
GTTTACACGTGAATGA	0.35
ATGATCACGTGGTAGG	0.14
GGTGACACGTGACTGT	0.17
AGGTCCACGTGTTGTC	0.09
ATGGCCACGTGTTATG	-0.1
TGTTGCACGTGCTGGC	0.07
TGCTGCACGTGTGGTC	-0.03
GATTGCACGTGTTAGT	0.12
CATTACACGTGGTTGT	0.12

Sequence	relative binding free energy [kcal/mol]
CCGTGCACGTGATGTT	0.21
AAAGTCACGTGTTGAG	0.05
GCGTTCACGTGAGTGG	0.39
TTAAACACGTGTGTAG	-0.02
CATGACACGTGTGAGG	0.15
TGGTCCACGTGTGAGG	-0.05
AGTTGCACGTGTTGAC	0.01
TTTGCCACGTGATGGG	0.03
TAGGGCACGTGCTAGT	-0.29
GGAATCACGTGTGGAT	0.06
TAAGTCACGTGCTGTT	0.06
TTGAGCACGTGGGGAC	-0.32
CGTGTCACGTGAAGAT	0.17
ACGGACACGTGTTTGG	-0.05
TGCTACACGTGTTTGT	-0.04
GTGGACACGTGAAGTG	0.28
TAGTGCACGTGTAACT	0.08
GTTTGCACGTGTTATT	0.13
GCGGTCACGTGGTTCG	0.19
GAGGGCACGTGACTTG	0.09
ATCAGCACGTGTGTGG	0.07
CATGTCACGTGAGTGT	0.27
TCTGGCACGTGGTTGC	0
CTTTTCACGTGTGTCA	0.24
GATAGCACGTGGTTGT	-0.09

Sequence	relative binding free energy [kcal/mol]
TGATTCACGTGTATGC	0.33
AGTCGCACGTGAAAGT	0.27
ATGTTCACGTGTAGGC	0.37
AGGTTCACGTGTCGGA	0.17
GTGGTCACGTGATAAA	0.18
GATGACACGTGGTTGA	0.1
TTGCGCACGTGTTATG	-0.13
AGATCCACGTGTTGTT	-0.01
GCTGGCACGTGGGGAT	-0.09
GGTTTCACGTGGATTA	0.36
TTACGCACGTGTATTG	-0.09
ATGCGCACGTGGTATA	-0.2
TTTGCCACGTGACGTG	0.04
AGAGTCACGTGTGGGG	0.08
AGGAGCACGTGCGAGT	-0.07
CGAGTCACGTGTTAGG	0.09
CGGTGCACGTGCATGT	-0.09
GTGAACACGTGGTGTG	-0.23
AGGGTCACGTGGGATT	0.13
TTGGGCACGTGCGGCG	-0.21
GTTTCCACGTGCGTTT	0.12
TTTCGCACGTGTGTAG	0.07
AAAGACACGTGAGGGA	0.36
GTAAGCACGTGGGTAA	-0.25
TTTCTCACGTGTGAGT	0.21

Sequence	relative binding free energy [kcal/mol]
TTTAACACGTGGTCTT	-0.16
AAAATCACGTGTTTGA	0.11
TGACGCACGTGCGTGG	-0.25
GAGTACACGTGAGGGC	0.41
TGCTGCACGTGGCGGA	-0.06
TTAAGCACGTGGGAAA	-0.04
GAATTCACGTGGGGCA	0.28
TATAACACGTGCTGTT	-0.11
CGGGTCACGTGGCGGA	-0.06
TTTATCACGTGATAAG	0.1
AGGTTCACGTGTTAAC	0.32
CAGCTCACGTGGAGGG	0.07
TTGGACACGTGCTTTA	0.11
CGAATCACGTGGGGCG	0.23
ATGTTCACGTGCATGT	0.27
CGGTACACGTGCTGGG	0.01
GGGGGCACGTGGGTGA	-0.17
ATACGCACGTGGGGCT	-0.13
GAGGTCACGTGGTTTA	0.03
AGTTACACGTGGTATA	0.13
TTGGGCACGTGTTCTA	0.01
AGGAACACGTGGTGGG	0.02
CGGGGCACGTGTTATT	-0.09
TGTGACACGTGGTAAA	-0.03
AGTGACACGTGTGTGT	-0.05

Sequence	relative binding free energy [kcal/mol]
CGGGACACGTGCAGGG	-0.07
GCAAGCACGTGGGTGG	-0.21
TATGACACGTGAGTAG	0.24
AGAGGCACGTGGCAGA	-0.11
CGGCGCACGTGATGTG	0.02
CGTTACACGTGGTTTG	-0.02
TACGGCACGTGCGGGA	-0.12
GGTTCCACGTGTAAGG	0.11
GATGGCACGTGATAAT	0.16
TGTTCCACGTGTGTCG	0.04
GGTAACACGTGTCGTT	-0.02
AGGTGCACGTGTAGAC	0.04
TGATGCACGTGTGTTC	0.11
GAGTACACGTGTTCGG	0.27
AGAGTCACGTGCGTTA	0.1
TTAAACACGTGGTATT	-0.02
ATCTTCACGTGGGTAT	0.14
AGATGCACGTGAGGAA	0.12
TATTGCACGTGGTGGC	-0.08
TTTGACACGTGGAATT	0.1
GTATTCACGTGTGGTA	0.28
